To fix the notation:
T1: RBFOX1 RRM RbFoxmut (Fox-RRM*) (Homo sapiens, UniProt Q9NWB1 109-208, R118D;E147R;N151S;E152T)
T1 sequence: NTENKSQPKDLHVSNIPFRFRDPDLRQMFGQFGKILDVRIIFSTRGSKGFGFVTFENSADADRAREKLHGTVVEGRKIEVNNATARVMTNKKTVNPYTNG

B1: UGCCCUG (DNA:RNA)
RNA: GGGAGACCGGAAUUCAGAUUGUCCUGCCCUGUUAAAUCCCGUCGUAGCCACCA
DNA 1: CAATCTGAATTCCGGTCTCCC
DNA 2: TGGTGGCTACGACGGGATT
B2: CCCUGCU (DNA:RNA)
RNA: B1 RNA with U25C, G26C, C28U, C29G, U30C, G31U
DNA 1: CAATCTGAATTCCGGTCTCCC
DNA 2: TGGTGGCTACGACGGGATT
B3: GUUCCAU (DNA:RNA)
RNA: B1 RNA with U25G, G26U, C27U, U30A, G31U
DNA 1: CAATCTGAATTCCGGTCTCCC
DNA 2: TGGTGGCTACGACGGGATT
B4: GGUGGCC (DNA:RNA)
RNA: B1 RNA with U25G, C27U, C28G, C29G, U30C, G31C
DNA 1: CAATCTGAATTCCGGTCTCCC
DNA 2: TGGTGGCTACGACGGGATT
B5: AGACACA (DNA:RNA)
RNA: B1 RNA with U25A, C27A, C29A, U30C, G31A
DNA 1: CAATCTGAATTCCGGTCTCCC
DNA 2: TGGTGGCTACGACGGGATT
B6: ACCAAGA (DNA:RNA)
RNA: B1 RNA with U25A, G26C, C28A, C29A, U30G, G31A
DNA 1: CAATCTGAATTCCGGTCTCCC
DNA 2: TGGTGGCTACGACGGGATT
B7: CAAAGCU (DNA:RNA)
RNA: GGGAGACCGGAAUUCAGAUUGUCCCAAAGCUUUAAAUCCCGUCGUAGCCACCA
DNA 1: CAATCTGAATTCCGGTCTCCC
DNA 2: TGGTGGCTACGACGGGATT
B8: GUCGUUC (DNA:RNA)
RNA: B1 RNA with U25G, G26U, C28G, C29U, G31C
DNA 1: CAATCTGAATTCCGGTCTCCC
DNA 2: TGGTGGCTACGACGGGATT
B9: GGCUAGA (DNA:RNA)
RNA: B1 RNA with U25G, C28U, C29A, U30G, G31A
DNA 1: CAATCTGAATTCCGGTCTCCC
DNA 2: TGGTGGCTACGACGGGATT
B10: UCGUUGG (DNA:RNA)
RNA: B1 RNA with G26C, C27G, C28U, C29U, U30G
DNA 1: CAATCTGAATTCCGGTCTCCC
DNA 2: TGGTGGCTACGACGGGATT
B11: AUAAGUG (DNA:RNA)
RNA: B7 RNA with C25A, A26U, C30U, U31G
DNA 1: CAATCTGAATTCCGGTCTCCC
DNA 2: TGGTGGCTACGACGGGATT
B12: GUAGGGA (DNA:RNA)
RNA: B7 RNA with C25G, A26U, A28G, C30G, U31A
DNA 1: CAATCTGAATTCCGGTCTCCC
DNA 2: TGGTGGCTACGACGGGATT
B13: ACAGUUA (DNA:RNA)
RNA: B7 RNA with C25A, A26C, A28G, G29U, C30U, U31A
DNA 1: CAATCTGAATTCCGGTCTCCC
DNA 2: TGGTGGCTACGACGGGATT
B14: CGCACUC (DNA:RNA)
RNA: B1 RNA with U25C, C28A, G31C
DNA 1: CAATCTGAATTCCGGTCTCCC
DNA 2: TGGTGGCTACGACGGGATT
B15: CCAGGCG (DNA:RNA)
RNA: B7 RNA with A26C, A28G, U31G
DNA 1: CAATCTGAATTCCGGTCTCCC
DNA 2: TGGTGGCTACGACGGGATT
B16: UAUCCAA (DNA:RNA)
RNA: B1 RNA with G26A, C27U, U30A, G31A
DNA 1: CAATCTGAATTCCGGTCTCCC
DNA 2: TGGTGGCTACGACGGGATT
B17: ACAUAGG (DNA:RNA)
RNA: B7 RNA with C25A, A26C, A28U, G29A, C30G, U31G
DNA 1: CAATCTGAATTCCGGTCTCCC
DNA 2: TGGTGGCTACGACGGGATT
B18: UGUUUUA (DNA:RNA)
RNA: B1 RNA with C27U, C28U, C29U, G31A
DNA 1: CAATCTGAATTCCGGTCTCCC
DNA 2: TGGTGGCTACGACGGGATT
B19: AGAGAUU (DNA:RNA)
RNA: B7 RNA with C25A, A26G, A28G, G29A, C30U
DNA 1: CAATCTGAATTCCGGTCTCCC
DNA 2: TGGTGGCTACGACGGGATT
B20: GAGAACA (DNA:RNA)
RNA: B7 RNA with C25G, A27G, G29A, U31A
DNA 1: CAATCTGAATTCCGGTCTCCC
DNA 2: TGGTGGCTACGACGGGATT

These results are taken from PMC9911399, “Two distinct binding modes provide the RNA-binding protein RbFox with extraordinary sequence specificity”.

Where a chain is given by its changes, count along the chain named. This is one part of the list.

The experiment deals with T1, RBFOX1 RRM RbFoxmut (Fox-RRM*). Description: EMSA; HiTS-Eq, 1 nM pool, 10 min; buffer printed only for the single-RNA assays: 10 mM Tris pH 7.5, 150 mM NaCl, 3.4 mM EDTA, 0.001% NP-40, 30 C. The conditions noted are these: tags: His6 N-terminal (pET28a); label: 5' 32P. The method in brief: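 Relative association constants, normalised to the cognate motif, were derived by comparing read counts of each RNA species with those of the control reaction. The RNA sequenced was the free fraction, separated by 8% native PAGE after a 10 min equilibration in 50 µL of 1 nM 5′-radiolabelled RNA (7 randomized nucleotides) with increasing concentrations of purified wild-type or mutant RbFox RRM.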
In the case of B1, the binding signal is 0.123 KA relative to UGCAUGU.

For the molecule B2, the binding signal is 0.092 KA relative to UGCAUGU.

As for B3, the binding signal was 0.0957 KA relative to UGCAUGU.

As to B4, the binding signal is 0.19 KA relative to UGCAUGU.

In the case of B5, the binding signal was 0.0613 KA relative to UGCAUGU.

As for B6, the binding signal is 0.0797 KA relative to UGCAUGU.

Turning to B7, the binding signal was 0.069 KA relative to UGCAUGU.

On to B8, for which the binding signal is 0.0878 KA relative to UGCAUGU.

Regarding B9, the binding signal was 0.0874 KA relative to UGCAUGU.

As to B10, the binding signal is 0.109 KA relative to UGCAUGU.

In the case of B11, the binding signal is 0.173 KA relative to UGCAUGU.

For B12, the binding signal is 0.0673 KA relative to UGCAUGU.

Regarding B13, the binding signal is 0.122 KA relative to UGCAUGU.

As to B14, the binding signal is 0.075 KA relative to UGCAUGU.

In the case of B15, the binding signal was 0.106 KA relative to UGCAUGU.

As to B16, the binding signal was 0.0448 KA relative to UGCAUGU.

Take B17: the binding signal is 0.0939 KA relative to UGCAUGU.

With B18, the binding signal is 0.115 KA relative to UGCAUGU.

For the molecule B19, the binding signal was 0.088 KA relative to UGCAUGU.

As to B20, the binding signal is 0.0771 KA relative to UGCAUGU.
